Assay results from PubChem BioAssay AID624417 (National Center for Advancing Translational Sciences (NCATS), 2012).
Out of some 410,000 compounds screened, about 6,400 (1.6%) were called active. This list was built around the results that the source calls inconclusive (neither active nor inactive); the mix of calls is not that of the screen. Calls come from the whole dose curve; as a rule, active = well fitted inhibition curve with a large enough effect; inconclusive = small, poorly fitted or top-dose-only effect; inactive = no such curve, though single readings can be large or run the other way. No potency is given beside an inconclusive call; the fits are too rough.

molecular target: Glucagon-like peptide 1 receptor (Homo sapiens) (UniProt P43220); experiment: qHTS of GLP-1 Receptor Inverse Agonists (Inhibition Mode); settings: HEK293 GLP-1R CRE-luciferase, luminescence, 24 h; Potency: GLP-1R form is constitutively active unless noted; activity change, negative = inhibition: at 38.3 µM (top of the series) unless noted; note: nearly all actives have a fitted effect of over 55% in size
How it was run: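 HEK293 cells stably co-expressing constitutively active GLP-1R and a cAMP-responsive luciferase reporter were seeded in DMEM with 10% Nu serum, given compounds after 12 h, and incubated 24 h at 37 deg C. Luminescence was then read.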
% is set by controls: 0 for no effect and ±100 for the full control effect; potency is the fitted concentration of half-maximal effect; tags give direction and shape of the fitted curve.

Sequence of UniProt P43220 (P43220 whole entry, looked up): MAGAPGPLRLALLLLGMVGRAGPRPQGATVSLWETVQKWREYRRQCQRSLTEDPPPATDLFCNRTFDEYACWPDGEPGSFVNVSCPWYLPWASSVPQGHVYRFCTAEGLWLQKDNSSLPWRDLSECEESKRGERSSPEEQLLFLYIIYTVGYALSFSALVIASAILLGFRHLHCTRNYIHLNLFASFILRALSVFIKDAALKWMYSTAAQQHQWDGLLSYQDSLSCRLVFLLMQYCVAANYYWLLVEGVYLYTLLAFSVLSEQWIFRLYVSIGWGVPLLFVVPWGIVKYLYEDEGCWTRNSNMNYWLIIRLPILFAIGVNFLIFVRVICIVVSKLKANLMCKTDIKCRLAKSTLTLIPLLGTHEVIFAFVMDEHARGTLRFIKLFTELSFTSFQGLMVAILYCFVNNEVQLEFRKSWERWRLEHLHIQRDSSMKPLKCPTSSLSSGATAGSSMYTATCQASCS

SMILES | Potency | activity change, negative = inhibition
c1ccc(C(c2ccccc2)c2cccnc2)cc1 | inconclusive [inhibitor, partial curve, poor fit] | 
O=c1[nH]c(=O)n(-c2cccc3ccccc23)c(O)c1C=NCc1ccc2c(c1)OCO2 |  | inactive: 7.15%
CC(=NCCC1=CCCCC1)c1c(O)n(-c2ccccc2)c(=O)[nH]c1=O | inconclusive [inhibitor, single point] | 
C=C1CCN([C@@H](CC(C)C)C(=O)Nc2ccc(OC)cc2)S(=O)(=O)c2ccccc21 | inconclusive [inhibitor, partial curve, poor fit] | 
COc1nc2ccccc2nc1N1CCN(C)CC1 |  | inactive: -0.775%
CC(=O)O[C@H]1C(=O)[C@@]2(C)C([C@H](OC(=O)c3ccccc3)[C@]3(O)C[C@H](O)C(C)=C1C3(C)C)[C@]1(OC(C)=O)CO[C@@H]1C[C@H]2O (some centres undefined) | inconclusive [inhibitor, single point] | 
COC(=O)C(O)(c1ccc(NC(=O)NC2CCCCC2)cc1)C(F)(F)F (centres undefined) | inconclusive [inhibitor, single point] | 
COCCn1cc(C(=O)N2CCC3(CC2)OCCO3)c2c3ccccc3n(C)c2c1=O |  | inactive: 0%
Cc1cc(/C=C2\C(=O)NC(=O)N(c3ccc(Cl)cc3)C2=O)c(C)n1-c1sc2c(c1C#N)CCCC2 | inconclusive [inhibitor, full curve, poor fit] | 
Cn1c(=O)n(C)c2cc(CNCCc3ccc(F)cc3)ccc21 | inconclusive [inhibitor, single point] | 
CCCCn1c(O)c(C(=O)/C=C/c2ccc3c(c2)OCO3)c(=O)[nH]c1=O | inconclusive [inhibitor, partial curve, poor fit] | 
Cc1ccc(S(=O)(=O)N(C)C[C@@H]2OCc3ccccc3-c3c(n(C)c4ccccc34)C(=O)N([C@H](C)CO)C[C@@H]2C)cc1 | inconclusive [inhibitor, partial curve, poor fit] | 
CCOC(=O)[C@]12Cc3cc4c(cc3[C@H]1N(Cc1ccccc1)C(=O)c1ccccc12)OCO4 | inconclusive [inhibitor, single point] | 
O=C(COc1ccc(Br)cc1)N1CCN(Cc2c[nH]c3ccccc23)CC1 | inconclusive [inhibitor, partial curve, poor fit] | 
Cc1ccc(Cl)cc1NC(=O)N(Cc1ccc2c(c1)OCO2)C1CCN(Cc2ccccc2)CC1 | inconclusive [inhibitor, partial curve, poor fit] | 
CCOP(=S)(OCC)Oc1ccc2c(C)c(Cl)c(=O)oc2c1 | inconclusive [inhibitor, single point] | 
Cc1ccc(-n2nc3c(=O)n(CC(=O)NCC(C)c4ccccc4)nc(C)c3c2C)cc1 (centres undefined) | inconclusive [inhibitor, partial curve, poor fit] | 
CC(C)(C)c1csc(NC(=O)Nc2ccccc2)n1 | active: 10 µM | 
CCC(C)OC(=O)c1c(N)n(Cc2cccs2)c2nc3ccccc3nc12 (centres undefined) | inconclusive [inhibitor, single point] | 
CCOC(=O)[C@]12Cc3ccccc3[C@H]1N(C)C(=O)c1cc(OC)ccc12 | inconclusive [inhibitor, single point] | 

SMILES | Potency | activity change, negative = inhibition
CC12CC[C@H]3[C@@H](CCC4(O)C[C@H](O)CCC34/C=N/NC(=O)c3ccccc3[N+](=O)[O-])C1(O)CCC2C1=CC(=O)OC1 (some centres undefined) | inconclusive [inhibitor, single point] | 
CCN(CC)C(=O)Oc1ccc(Cl)c2ccccc12 | inconclusive [inhibitor, partial curve, poor fit] | 
CCOC(=O)C1(CCc2ccccc2)CCN(Cc2cccc3c2OCO3)CC1 | inconclusive [inhibitor, partial curve, poor fit] | 
COC(=O)C1=C(c2ccc(-c3ccccc3)c(F)c2)C[C@@H]2CC[C@H]1N2C(=O)N1CCC(C)CC1 | inconclusive [inhibitor, partial curve, poor fit] | 
CCC1(CC(C)c2ccccc2)C(=O)NC(=O)NC1=O (centres undefined) |  | inactive: 12.3%
CC(C)(C)c1nc(N2CCN(C(=O)c3ccco3)CC2)c2nnn(Cc3ccccc3Cl)c2n1 | inconclusive [inhibitor, partial curve, poor fit] | 
O=C(C1CC(c2ccc(F)cc2)=NO1)N1CCC2(CC1)OCCO2 (centres undefined) |  | inactive: 6.2%
O=C1NC(=S)N(c2ccccc2F)C(=O)/C1=C\c1cccs1 |  | inactive: 11.2%
COc1ccccc1Cc1c(-c2ccc(F)cc2)nc2cc(C)c(Br)c(C)n12 | inconclusive [inhibitor, partial curve, poor fit] | 
NC(Cc1ccc(Cl)cc1)c1csc(Nc2cnccn2)n1 (centres undefined) | inconclusive [inhibitor, single point] | 
CC/C(=N\NC(=O)c1ccccc1)c1c(O)n(Cc2ccccc2)c(=O)[nH]c1=O | inconclusive [inhibitor, single point] | 
O=c1[nH]c(O)c(N=Nc2ccc3c(c2)OCCO3)c(=O)[nH]1 | inconclusive [inhibitor, full curve, poor fit] | 
CCOC(=O)C(O)(c1ccc(N(C)C(=O)c2ccc(Cl)c(Cl)c2)cc1)C(F)(F)F (centres undefined) | inconclusive [inhibitor, partial curve] | 
Cc1ccc(C(=O)C2C(c3ccc(-c4ccccc4[N+](=O)[O-])o3)NC(=O)NC2(O)C(F)(F)F)cc1 (centres undefined) | inconclusive [inhibitor, single point] | 
COc1cccc(OC)c1C1=NCC(=O)Nc2c1oc1ccc(Br)cc21 | inconclusive [inhibitor, full curve, poor fit] | 
CN(C)C(=O)Oc1ccc(Cl)c2ccccc12 |  | inactive: -24.9%
O=C(Nc1cccc(C(F)(F)F)c1)C1CCCN1S(=O)(=O)c1cccc2nsnc12 (centres undefined) | inconclusive [inhibitor, single point] | 
CC12CCCCC1=[N+]([O-])CN2O (centres undefined) |  | inactive: 5.02%
CC(C)(c1ccc(O)cc1)c1ccc(O)cc1 | inconclusive [inhibitor, single point] | 
Cc1ccc(N(C)C(=O)Oc2ccc(C(=O)c3ccc(Cl)cc3)cc2)cc1 | inconclusive [inhibitor, partial curve, poor fit] | 

SMILES | Potency | activity change, negative = inhibition
CNC(=O)Oc1cc2c(cc1C(C)(C)C)CCC2 | inconclusive [inhibitor, single point] | 
CN(C)c1ccc(CNC(=O)Cn2c(=O)oc3cc(S(=O)(=O)N4CCCCCC4)ccc32)cc1 | inconclusive [inhibitor, single point] | 
COc1ccc(-c2nc(CSCC(=O)N3CCN(c4ccc(F)cc4)CC3)c(C)o2)cc1 | inconclusive [inhibitor, partial curve, poor fit] | 
O=C(CCN1CCCCC1)Nc1ccc(Cl)cc1C(=O)c1ccccc1 | inconclusive [inhibitor, single point] | 
NC(=O)c1ccc(NC(=O)COC(=O)C2(c3ccccc3F)CCCC2)cc1 | inconclusive [inhibitor, partial curve] | 
O=[N+]([O-])c1cc(Cl)c(O)c(-[n+]2c(-c3ccccc3)cc(-c3ccccc3)cc2-c2ccccc2)c1 | inconclusive [inhibitor, single point] | 
COc1ccc(N/N=C/c2c(O)n(-c3ccc(C)c(C)c3)c(=O)[nH]c2=O)cc1 | inconclusive [inhibitor, partial curve, poor fit] | 
CC1CCN(CC#CCOc2ccc(Cl)cc2)CC1 | inconclusive [inhibitor, partial curve, poor fit] | 
CCOC(=O)[C@]12Cc3cc(OC)ccc3[C@H]1N(C(C)C)C(=O)c1ccccc12 | inconclusive [inhibitor, single point] | 
CCOC(=O)CC1c2ccccc2-n2nncc2CN1Cc1ccc(OC)cc1 (centres undefined) | inconclusive [inhibitor, single point] | 
COc1ccc2cc1Oc1ccc(cc1)C[C@H]1c3cc(c(OC)cc3CCN1C)Oc1c(OC)c(OC)cc3c1[C@H](C2)N(C)CC3 | inconclusive [inhibitor, partial curve, poor fit] | 
CNCCC(Oc1ccc(C(F)(F)F)cc1)c1ccccc1 (centres undefined) | inconclusive [inhibitor, partial curve] | 
COc1ccccc1N1CCN(Cc2c(F)cccc2Cl)CC1 | inconclusive [inhibitor, single point] | 
CN(C)C(CNC(=O)Cc1ccc(Br)cc1)c1ccccc1 (centres undefined) | inconclusive [inhibitor, single point] | 
COCCNC(=O)CN1C(=O)C(C)N=C(c2ccccc2)c2cc(Cl)ccc21 (centres undefined) |  | inactive: -3.33%
O=C(c1cc2cc(F)ccc2[nH]1)N1CCC2(CC1)OCCO2 |  | inactive: -2.15%
CN(C)c1ccc(C(=O)N/N=C/C23CC[C@@H](O)CC2(O)CC[C@@H]2[C@@H]3CCC3(C)C(C4=CC(=O)OC4)CCC23O)cc1 (some centres undefined) | inconclusive [inhibitor, partial curve, poor fit] | 
C[C@]12CC[C@@H]3c4cc(O)c(O)cc4CC[C@H]3[C@@H]1CC[C@@H]2O | inconclusive [inhibitor, single point] | 
O=C(OCCN1CCOCC1)C1(c2ccccc2)CCCC1 | inconclusive [inhibitor, single point] | 
